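Grown in 96-well plates, cells were treated for 48 hours with each compound at five concentrations. Insufficient inhibition: endpoint recorded as highest concentration tested. At the GI50, growth is halved. TGI marks complete inhibition of growth.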
Test system: NCI-H322M lung
Assay: growth of human tumour cells (NCI), 48 h

Q: What does the source list for `COc1ccc(Cc2nn(CC(=O)N/N=C/c3ccc(Br)cc3)c(=O)c3c(C)noc23)cc1`?
A: GI50: 22.7 µM; TGI: > 100 µM

Q: For `COc1ccc(C(=O)/C=C/c2ccccc2Br)cc1S(N)(=O)=O`, which GI50 is on record?
A: Its GI50 is 3.28 µM.

Q: What about the TGI of the same compound?
A: Its TGI is 14 µM.

From PubChem BioAssay (NCI)
